# Literature values, collected in article PMC11006913.
# Changes are numbered by the printed parent chain. Some of the results follow.
# Key:
# Settings in all cases: PBM; conditions not shown; double strand, one strand shown; scale: upbm affinity estimate (log intensity, higher = more binding, comparable within an allelic series)
# ARX T333N (Homo sapiens) = ARX T333N (Homo sapiens) (UniProt Q96QS3)
# [1] = biological target: HOXD13 I297V (Homo sapiens) (UniProt P35453)
# [2] = biological target: HOXD13 I322L (Homo sapiens) (UniProt P35453)
# [3] = biological target: HOXD13 N298S (Homo sapiens) (UniProt P35453)
# [4] = biological target: HOXD13 Q325K (Homo sapiens) (UniProt P35453)
# [5] = biological target: HOXD13 Q325R (Homo sapiens) (UniProt P35453)
# [6] = biological target: HOXD13 R306W (Homo sapiens) (UniProt P35453)
# [7] = biological target: HOXD13 S316C (Homo sapiens) (UniProt P35453)
# ISX (Homo sapiens) = ISX (Homo sapiens) (UniProt Q2M1V0)
# ISX R83Q (Homo sapiens) = ISX R83Q (Homo sapiens) (UniProt Q2M1V0)
# [8] = biological target: PITX2 L100Q (Homo sapiens) (UniProt Q99697)
# [9] = biological target: PITX2 R108H (Homo sapiens) (UniProt Q99697)
# [10] = biological target: PITX2 R130W (Homo sapiens) (UniProt Q99697)
# [11] = biological target: PITX2 T114P (Homo sapiens) (UniProt Q99697)
# [12] = biological target: PROP1 R112Q (Homo sapiens) (UniProt O75360)
# [13] = biological target: PROP1 R99Q (Homo sapiens) (UniProt O75360)
# ARX P353L (Homo sapiens) = ARX P353L (Homo sapiens) (UniProt Q96QS3)
# [14] = biological target: T1, HESX1 E149K (Homo sapiens) (UniProt Q9UBX0)
# T1 sequence: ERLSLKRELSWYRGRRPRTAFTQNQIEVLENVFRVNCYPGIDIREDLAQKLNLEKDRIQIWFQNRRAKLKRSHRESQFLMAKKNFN
# [15] = biological target: T2, HESX1 N125S (Homo sapiens) (UniProt Q9UBX0)
# T2 sequence: T1 sequence with N31S, K55E
# [16] = biological target: T3, HESX1 R160C (Homo sapiens) (UniProt Q9UBX0)
# T3 sequence: T1 sequence with K55E, R66C
sequence,measurement,setting,value
ATTAATAA [8-mer ATTAATAA],binding signal,ARX T333N (Homo sapiens),11.9
same,binding signal,[1],12.5
same,binding signal,[2],11.5
same,binding signal,[3],12.6
same,binding signal,[4],11.9
same,binding signal,[5],12.1
same,binding signal,[6],11.8
same,binding signal,[7],12.3
same,binding signal,ISX (Homo sapiens),14.6
same,binding signal,ISX R83Q (Homo sapiens),13.3
same,binding signal,[8],10.6
same,binding signal,[9],9.37
same,binding signal,[10],8.95
same,binding signal,[11],9.29
ACAAATTA [8-mer ACAAATTA],binding signal,ARX T333N (Homo sapiens),11.8
same,binding signal,[12],12.5
same,binding signal,[13],12
AATTAGAC [8-mer AATTAGAC],binding signal,ARX P353L (Homo sapiens),12.2
same,binding signal,ISX R83Q (Homo sapiens),13.3
AGGCCTAG [8-mer AGGCCTAG],binding signal,[14],9.94
same,binding signal,[15],7.68
same,binding signal,[16],10
ACTAATCA [8-mer ACTAATCA],binding signal,ARX P353L (Homo sapiens),12.2
same,binding signal,ISX (Homo sapiens),14
same,binding signal,ISX R83Q (Homo sapiens),12.3
AGGCTGGG [8-mer AGGCTGGG],binding signal,[14],9.88
same,binding signal,[15],7.73
same,binding signal,[16],9.98
ACGGTGCC [8-mer ACGGTGCC],binding signal,[14],10
same,binding signal,[15],7.66
same,binding signal,[16],10
GCACATTA [8-mer GCACATTA],binding signal,[14],10.6
same,binding signal,[15],9.02
CTCGTTAC [8-mer CTCGTTAC],binding signal,ARX P353L (Homo sapiens),11.5
same,binding signal,[2],11.8
AACGGGCC [8-mer AACGGGCC],binding signal,[14],10
same,binding signal,[15],7.71
same,binding signal,[16],10
AATAATTG [8-mer AATAATTG],binding signal,ARX T333N (Homo sapiens),11.8
same,binding signal,[14],11.6
same,binding signal,[15],11.9
same,binding signal,[16],10.4
same,binding signal,ISX (Homo sapiens),14.7
same,binding signal,ISX R83Q (Homo sapiens),13.2
same,binding signal,[12],12.7
same,binding signal,[13],12.1
AATTAAAC [8-mer AATTAAAC],binding signal,ARX T333N (Homo sapiens),11.8
same,binding signal,ISX R83Q (Homo sapiens),13.4
AATTATGC [8-mer AATTATGC],binding signal,[14],11.3
CGTAATAG [8-mer CGTAATAG],binding signal,[14],10.7
CCATATTA [8-mer CCATATTA],binding signal,[14],10.7
same,binding signal,[15],9.32
GCTCGTTA [8-mer GCTCGTTA],binding signal,ARX P353L (Homo sapiens),11.7
same,binding signal,[2],12.1
AATTAGGC [8-mer AATTAGGC],binding signal,ARX P353L (Homo sapiens),12.3
same,binding signal,[13],12.1
ATAAATTA [8-mer ATAAATTA],binding signal,ARX T333N (Homo sapiens),11.8
TGATTAAA [8-mer TGATTAAA],binding signal,[14],11
same,binding signal,[15],10.2
same,binding signal,[16],10.4
ATATTAAT [8-mer ATATTAAT],binding signal,ARX T333N (Homo sapiens),11.9
same,binding signal,[1],12.3
same,binding signal,[3],12.6
same,binding signal,[5],12.3
same,binding signal,[6],11.8
same,binding signal,[7],12.2
ACTCATTA [8-mer ACTCATTA],binding signal,ARX P353L (Homo sapiens),12.3
same,binding signal,[12],12.3
same,binding signal,[13],12
AATTATTA [8-mer AATTATTA],binding signal,ARX T333N (Homo sapiens),11.8
same,binding signal,[14],11.4
same,binding signal,[15],11.2
same,binding signal,[16],10.5
same,binding signal,[12],12.6
same,binding signal,[13],12.1
AACCGCCG [8-mer AACCGCCG],binding signal,[14],10
same,binding signal,[15],7.75
same,binding signal,[16],10.2
GGCGCGCC [8-mer GGCGCGCC],binding signal,[14],9.9
same,binding signal,[15],8.16
same,binding signal,[16],9.94
ATTACGTG [8-mer ATTACGTG],binding signal,[14],10.8
AATAGACT [8-mer AATAGACT],binding signal,[14],10.7
AAATTGCA [8-mer AAATTGCA],binding signal,[14],10.7
same,binding signal,[15],9.23
GGGACCCC [8-mer GGGACCCC],binding signal,[14],9.91
same,binding signal,[15],7.61
same,binding signal,[16],9.94
AATTAAGA [8-mer AATTAAGA],binding signal,ARX T333N (Homo sapiens),11.8
same,binding signal,[14],11.2
same,binding signal,[15],11
same,binding signal,[16],10.2
same,binding signal,ISX (Homo sapiens),14.9
same,binding signal,ISX R83Q (Homo sapiens),13.7
ATTAATTC [8-mer ATTAATTC],binding signal,ARX T333N (Homo sapiens),11.9
same,binding signal,[9],9.4
same,binding signal,[11],9.45
same,binding signal,[12],12.6
CTAACGAG [8-mer CTAACGAG],binding signal,ARX P353L (Homo sapiens),11.8
same,binding signal,[2],11.6
AGCGGGGG [8-mer AGCGGGGG],binding signal,[14],9.86
same,binding signal,[15],7.67
same,binding signal,[16],10.1
ATATTACC [8-mer ATATTACC],binding signal,[14],10.8
same,binding signal,[15],9.21
ATTATGAA [8-mer ATTATGAA],binding signal,[14],11
same,binding signal,[15],9.79
ATAACGAG [8-mer ATAACGAG],binding signal,ARX P353L (Homo sapiens),11.6
same,binding signal,[2],12
AGCTGGTG [8-mer AGCTGGTG],binding signal,[14],10.1
same,binding signal,[15],7.71
same,binding signal,[16],10.1
AATTAAGG [8-mer AATTAAGG],binding signal,ARX T333N (Homo sapiens),11.8
same,binding signal,ISX R83Q (Homo sapiens),13.5
same,binding signal,[8],9.74
same,binding signal,[9],8.81
same,binding signal,[10],8.64
same,binding signal,[11],8.81
CCTCGTTA [8-mer CCTCGTTA],binding signal,ARX P353L (Homo sapiens),11.7
same,binding signal,[2],12.1
TATTAATA [8-mer TATTAATA],binding signal,ARX T333N (Homo sapiens),11.8
same,binding signal,[1],12.6
same,binding signal,[2],11.8
same,binding signal,[3],12.9
same,binding signal,[4],12.3
same,binding signal,[5],12.5
same,binding signal,[6],12.2
same,binding signal,[7],12.4
GTCGCCTA [8-mer GTCGCCTA],binding signal,[14],10
same,binding signal,[15],7.61
same,binding signal,[16],10
CAGTGCGC [8-mer CAGTGCGC],binding signal,[14],9.93
same,binding signal,[15],7.67
same,binding signal,[16],10.2
GCTGCGAC [8-mer GCTGCGAC],binding signal,[14],10
same,binding signal,[15],7.68
same,binding signal,[16],10
GCCCTGGA [8-mer GCCCTGGA],binding signal,[14],9.94
same,binding signal,[15],7.69
same,binding signal,[16],10.1
